# Test results reported in patent publication US20070087400A1, “Covalent tethering of functional groups to proteins and substrates therefor” (priority 2004, published 2007).
# B1: DhaA.H272F-Flag: DhaA.H272F with Flag epitope at the C-terminus (protein)
# chain: MSEIGTGFPFDPHYVEVLGERMHYVDVGPRDGTPVLFLHGNPTSSYLWRNIIPHVAPSHRCIAPDLIGMGKSDKPDLDYFFDDHVRYLDAFIEALGLEEVVLVIHDWGSALGFHWAKRNPERVKGIACMEFIRPIPTWDEWPEFARETFQAFRTADVGRELIIDQNAFIEGALPKCVVRPLTEVEMDHYREPFLKPVDREPLWRFPNELPIAGEPANIVALVEAYMNWLHQSPVPKLLFWGTPGVLIPPAEAARLAESLPNCKTVDIGPGLFYLQEDNPDLIGSEIARWLPALTGDYKDDDDK
# Assay: Capturing of DhaA.H272F fusions expressed in CHO-K1 cells on SA-coated beads
# Details: cells treated with biotin-C10H21NO2—Cl 25 μM, 60 minutes; Western blot
molecule,measurement,value
B1,fraction of expressed protein captured on SA-coated beads,more than 50%
